Assay results: the supplement of paper PMC11417369
± gives the standard deviation of the averaged measurements. The list shows a part of the results.

The sequences below were run on PfAP2-LT AP2 domain (GST-tagged) (assay: gcPBM binding intensity (ln(normalized median fluorescence intensity)); higher = stronger DNA binding).
Outline: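 The binding buffer was 1× PBS containing 1% milk, 0.2 mg/ml BSA, 0.5% salmon testes DNA and 0.03% Triton X-100. In it, GST-tagged P. falciparum DNA-binding domains expressed in E. coli were applied for 1 h to an Agilent 4 × 180k array of primer-extended double-stranded 36-bp intergenic genomic probes plus negative controls. Binding intensity, read with Alexa488 anti-GST antibody and a 488 nm scan, is the highest Masliner-normalised natural-log median intensity across replicate spots of either probe orientation.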

| Sequence | gcPBM binding intensity (ln) |
| --- | --- |
| TATTTAAAAGCATATACACACAACTGGAATGAAAAG [CACACA_site6128] | 9.05 ± 0.42 |
| GTTTCAAAATTAAACACACACAAAAAAAAAAAAAAA [CACACA_site2680] | 8.78 ± 0.52 |
| TATTATATCTTTATTATTCATCTAAAATTTGTATTT [TGCATGCA_negctrl_site233] | 8.59 ± 0.53 |
| TTGATTTACTATAGATGTACGTAAAATATAAATAAA [XGTACX_site8256] | 8.52 ± 0.45 |
| ATAAAAAATAAATATATACATACATACATACATATA [XGTACX_negctrl_site507] | 8.86 ± 0.45 |
| ATAAAACAAAAATATAAACACACATACATTGGTTTT [CACACA_site8809] | 8.93 ± 0.44 |
| TTTTCAAAAATATACACACACATAAATATAGGTATA [CACACA_site6506] | 9.12 ± 0.29 |
| AATTTAAAAGAAAAAGAAAAATAATAAACAGAAGCA [XGTACX_negctrl_site503] | 8.62 ± 0.52 |
| TTATATATATATTATAGTACATATATAATATAGTAA [XGTACX_site6869] | 8.54 ± 0.4 |
| ATATATGAGCAAAAATATATAAGATAACACATAAAT [CACACA_negctrl_site167] | 9.09 ± 0.41 |
| TCTCTATAAATAAATACATGCATATAATAAAGAATT [TGCATGCA_site710] | 8.68 ± 0.35 |
| ATTTTTTTTATTTTTTCAATATATATATATATATAT [CACACA_negctrl_site1444] | 8.9 ± 0.41 |
| TTATATATATATAATACACACATAATAATATATTTA [CACACA_site3038] | 8.68 ± 0.4 |
| GAAATAGAAATAAAATAGGCATACAATAGAACTAAG [TGCATGCA_negctrl_site537] | 9.01 ± 0.56 |
| TATTTTACAAAATAAGGTACGTAAATATATGGTAGG [XGTACX_site2133] | 8.83 ± 0.42 |
| AAATATCTTTTATATTGTACATATTCCTTATGTGGA [XGTACX_site7638] | 8.71 ± 0.42 |
| CCTTATTATTATTTTACACACGTCCTAATAAGAGGA [CACACA_site1319] | 8.88 ± 0.31 |
| TATTTAAAAATATATACACACATTTTATATTATTAT [CACACA_site781] | 8.77 ± 0.47 |
| AAAAACAAAAAAGAAGCACACATATATATATATATA [CACACA_site8779] | 9.89 ± 0.3 |

| Sequence | gcPBM binding intensity (ln) |
| --- | --- |
| AATATATAAATAAATACACACATAAAATAGAAATAT [CACACA_site1663] | 9.23 ± 0.43 |
| TTTATCTGATATATTACACACAAAAAAAAAAAAAAA [CACACA_site7637] | 8.63 ± 0.4 |
| AATATTATATATATGGGTACTAATTCCTTTAATTTC [XGTACX_site102] | 8.59 ± 0.47 |
| TTTTTTTAAACTGAAAGTACTTATTCCAAGAAAATA [XGTACX_site50] | 7.96 ± 0.3 |
| ATATATATATCAACAACACACGATTAACTAAAAAAA [CACACA_site302] | 8.88 ± 0.47 |
| ATAATGACTAAATTTAAACACACAAGGGGAGTTTAC [CACACA_site8209] | 8.79 ± 0.5 |
| CGCACAAAAATATACACACACACATCTATATTTATT [CACACA_site7675] | 9.79 ± 0.42 |
| AAAACAAATGAGTACACACACATAAAAGTTGAAAAT [CACACA_site6238] | 9.65 ± 0.49 |
| TACCCATATTAATATGTGCGCATATAAAAGTCAAAC | 9.09 ± 0.35 |
| TATATATATATATACACACACATATATATATATATA [CACACA_site1346] | 9.685 ± 0.05 |
| GCATAAGAAATAAATAGTACACACATAGACACACAC [XGTACX_site3095] | 9.86 ± 0.45 |
| ATAAGATATGTATATACACACATTTATTTACATATA [CACACA_site3263] | 8.94 ± 0.4 |
| AGTATACATATATATACACACACACCGATATATATA [CACACA_site8357] | 9.74 ± 0.23 |
| TTAATATATTAAATCTTACACACTAAAAAATATGTA [CACACA_site307] | 8.43 ± 0.35 |
| TAAAAAAAATAAACGTGTACATAAAAATGAATATGT [XGTACX_site119] | 8.91 ± 0.4 |
| AACGTTAAAAAAAAAATATATATAAGGAGAAAGCAC [XGTACX_negctrl_site338] | 8.96 ± 0.52 |
| GAAAATATTATAGCACCACACACTTATTTTATATAT [CACACA_site2265] | 9.18 ± 0.33 |
| TATGCGTCTTGCCTTGCACACTTTTATGAAAAAAAA [CACACA_site5174] | 8.79 ± 0.4 |
| TAATTCGCAAAAGAAAGAAATTAAGAAAAAGAAAAA [XGTACX_negctrl_site614] | 8.4 ± 0.64 |

| Sequence | gcPBM binding intensity (ln) |
| --- | --- |
| TTCAATAGTAAGTATACACACATATATATATATAAA [CACACA_site2687] | 9.14 ± 0.35 |
| CAAGCTATGTATTCTACACACACATACACCCATATA [CACACA_site9133] | 9.52 ± 0.29 |
| TTTTTAAAAATATACACACACAGATATTATAGATAT [CACACA_site6511] | 9.14 ± 0.21 |
| TTTCTTTTTTTTTTTTCATTGATCCATTTATGATTA [TGCATGCA_negctrl_site225] | 8.52 ± 0.56 |
| TTATAGGTTCTATACATATATTTATATATGTACAGA [CACACA_negctrl_site60] | 8.55 ± 0.41 |
| TATGAAAAAATATATACACACATAATAAAGGTATAT [CACACA_site3737] | 9.1 ± 0.38 |
| TTTGTTTTAAATATTATACACACGTAAAAGTATAAT [CACACA_site7954] | 8.7 ± 0.36 |
| TAATATTATATATAAACACACATACCCATGTAAATA [CACACA_site5170] | 8.98 ± 0.33 |
| TCGTACTTGTATTATGCACACATATAATTAAACATA [CACACA_site9089] | 8.97 ± 0.32 |
| AAAAAAAAAAATATATTATTTTACTTGTTTATTTTT [GTGCAC_negctrl_site435] | 8.43 ± 0.52 |
| AATAATCAAATATTAAAAATTGTGCAAAAAAAAAAA [XGTACX_negctrl_site399] | 8.78 ± 0.51 |
| ATATATATATATATATGTACATAATAATATATATTA [XGTACX_site111] | 9.09 ± 0.47 |
| TAAAAGGTGTATATAATACACACGTGGGATTAGAAT [CACACA_site610] | 9.18 ± 0.42 |
| AAAATAAACAATGAACAATAAACAATGAACAATGAA [CACACA_negctrl_site1194] | 9.05 ± 0.49 |
| TATATAAAGCATTGTAGTACTACCAATATTTTTTTT [XGTACX_site3523] | 8.7 ± 0.58 |
| AAAAAATATACATATACACACATATGTATATAGAAT [CACACA_site2170] | 9.15 ± 0.46 |
| ATATGTTATATGTAATGTACTTTTGATGTATATATT [XGTACX_site8615] | 8.89 ± 0.52 |
| AAAATATTATAAATTTGTACTTATAAATATTGTATA [XGTACX_site8165] | 8.47 ± 0.44 |
